Measurements published in publication PMC10188589.
Results are given in words; binding and its absence hold for the method and conditions named. In cells and extracts the contact can be indirect. Some binding calls cover weakened binding; strength is not graded here.

Chains of the proteins cited; added tags and fusions are not shown. Lines headed by an entry give the natural chain unless they say otherwise; changes in a name come on top.
UniProt Q8N884: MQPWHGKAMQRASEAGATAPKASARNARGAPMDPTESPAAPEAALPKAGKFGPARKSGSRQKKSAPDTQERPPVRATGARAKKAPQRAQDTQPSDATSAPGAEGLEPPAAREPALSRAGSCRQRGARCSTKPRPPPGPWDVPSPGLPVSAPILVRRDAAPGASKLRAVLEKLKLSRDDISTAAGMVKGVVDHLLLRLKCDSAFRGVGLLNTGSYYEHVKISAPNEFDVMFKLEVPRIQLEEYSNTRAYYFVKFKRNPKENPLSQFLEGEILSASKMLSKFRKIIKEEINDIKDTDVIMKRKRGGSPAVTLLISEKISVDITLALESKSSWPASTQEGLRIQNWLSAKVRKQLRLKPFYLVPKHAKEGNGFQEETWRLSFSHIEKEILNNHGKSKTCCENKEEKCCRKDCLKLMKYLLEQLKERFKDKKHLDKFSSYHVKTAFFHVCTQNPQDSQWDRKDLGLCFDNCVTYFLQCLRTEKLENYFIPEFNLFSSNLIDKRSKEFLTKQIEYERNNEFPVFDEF
UniProt Q99873: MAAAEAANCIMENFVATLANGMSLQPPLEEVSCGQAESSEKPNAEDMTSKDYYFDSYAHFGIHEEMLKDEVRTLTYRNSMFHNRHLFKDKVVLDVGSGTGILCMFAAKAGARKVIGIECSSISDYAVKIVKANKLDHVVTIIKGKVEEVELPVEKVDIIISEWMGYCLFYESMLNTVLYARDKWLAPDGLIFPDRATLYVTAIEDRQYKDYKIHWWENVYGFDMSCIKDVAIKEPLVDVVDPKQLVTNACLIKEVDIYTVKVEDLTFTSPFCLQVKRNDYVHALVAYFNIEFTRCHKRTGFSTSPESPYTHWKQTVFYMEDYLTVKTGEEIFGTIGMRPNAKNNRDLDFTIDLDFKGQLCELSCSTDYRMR

Tests used:
HA-cGAS (human) = HA-cGAS (human) (UniProt Q8N884); assay: co-IP; HA immunoprecipitation from lysates of HEK293T cells co-expressing HA-cGAS and GFP-PRMT constructs; EBC lysis buffer (50 mM Tris pH 7.5, 120 mM NaCl, 0.5% NP-40), 4 °C, four washes with NETN buffer; immunoblot
[1] = molecular target: Endogenous PRMT1 (human (endogenous in HeLa)) (UniProt Q99873); assay: co-IP; immunoprecipitation from HeLa cells with PRMT1 antibody or control IgG; endogenous proteins; immunoblot

Substance	binding (HA-cGAS (human))	binding [1]
endogenous cGAS (from UniProt Q8N884 1-522)	–	binds
GFP-PRMT1-G98R (from UniProt Q99873 1-371) (enzyme)	no binding	–
GFP-PRMT1-E162Q (from UniProt Q99873 1-371) (enzyme)	no binding	–

Continued, values first:

binding (HA-cGAS (human))	binding [1]	Substance
binds	–	GFP-PRMT1 (from UniProt Q99873 1-371) (enzyme)
no binding	–	GFP-PRMT1-E171A (from UniProt Q99873 1-371) (enzyme)
